The text below walks through data of PMC4336329 (PLoS ONE, 2015).

Among all 310,000 compounds or so, about 2,200 (0.71%) showed an effect of 50% or more. The effect is printed as a negative number. Some of the results follow.

The target of the assay is human ether-à-go-go-related gene (hERG) potassium channel (human, UniProt Q12809). The assay can be described thus: primary screen, population patch clamp on CHO cells stably expressing hERG.
human ether-à-go-go-related gene (hERG) potassium channel, sequence (Q12809 whole entry, looked up): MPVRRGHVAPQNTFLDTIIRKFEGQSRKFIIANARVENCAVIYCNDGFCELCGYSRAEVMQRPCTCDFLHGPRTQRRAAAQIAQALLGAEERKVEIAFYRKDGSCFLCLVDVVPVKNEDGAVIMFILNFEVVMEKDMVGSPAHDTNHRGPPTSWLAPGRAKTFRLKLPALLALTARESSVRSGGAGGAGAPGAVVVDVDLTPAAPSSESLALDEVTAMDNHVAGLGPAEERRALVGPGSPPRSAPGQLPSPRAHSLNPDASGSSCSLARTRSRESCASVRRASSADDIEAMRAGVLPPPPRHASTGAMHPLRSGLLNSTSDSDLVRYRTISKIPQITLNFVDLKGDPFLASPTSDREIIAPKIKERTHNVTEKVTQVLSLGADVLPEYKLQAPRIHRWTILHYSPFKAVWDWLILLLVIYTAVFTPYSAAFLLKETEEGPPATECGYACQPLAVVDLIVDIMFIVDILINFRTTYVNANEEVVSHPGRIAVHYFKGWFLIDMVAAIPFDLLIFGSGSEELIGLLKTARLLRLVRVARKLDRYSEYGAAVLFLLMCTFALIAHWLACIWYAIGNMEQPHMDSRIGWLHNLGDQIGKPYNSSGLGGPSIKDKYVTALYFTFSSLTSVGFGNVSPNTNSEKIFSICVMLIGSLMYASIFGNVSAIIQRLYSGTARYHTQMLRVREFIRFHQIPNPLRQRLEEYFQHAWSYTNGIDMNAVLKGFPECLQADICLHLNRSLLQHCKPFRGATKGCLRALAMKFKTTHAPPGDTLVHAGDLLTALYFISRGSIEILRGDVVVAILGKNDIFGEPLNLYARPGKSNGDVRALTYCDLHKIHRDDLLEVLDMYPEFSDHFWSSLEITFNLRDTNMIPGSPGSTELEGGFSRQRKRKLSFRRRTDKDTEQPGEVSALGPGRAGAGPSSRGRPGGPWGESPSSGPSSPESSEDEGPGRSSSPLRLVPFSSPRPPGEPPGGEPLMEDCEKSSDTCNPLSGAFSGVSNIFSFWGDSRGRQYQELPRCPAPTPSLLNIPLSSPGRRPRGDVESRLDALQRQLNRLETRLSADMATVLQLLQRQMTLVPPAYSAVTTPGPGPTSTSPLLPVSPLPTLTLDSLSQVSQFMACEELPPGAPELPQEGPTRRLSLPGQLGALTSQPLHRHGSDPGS
In the case of `O=C1C=C(c2ccccc2Oc2ccccc2)C[C@@H](c2ccc3c(c2)OCO3)C1`, the “hERG current change (%, negative = inhibition) at 1uM” value is recorded as 0.52%. For `CCOc1ccccc1C(=O)NCC(=O)N(C)Cc1ccccc1C` the value was 8%; for `O=C(Nc1ccccc1C(=O)N1CCCC1)c1cccc(S(=O)(=O)N2CCCCC2)c1`, 0.273%; for `Clc1cccc(OCc2nc(-c3ccncc3)no2)c1`, 7.83%.

For the molecule `Cc1nn(CC(=O)NC(=O)c2ccccc2)c(C)c1[N+](=O)[O-]`, the “hERG current change (%, negative = inhibition) at 1uM” value was -8.83%. For `Cc1cc2cc(CNC(=O)NC3CCCCC3)ccc2[nH]1` the value was 8.06%. In the case of `CC1CCCC(C)N1NC(=S)Nc1ccc(OC(F)F)cc1` (centres unmarked), the “hERG current change (%, negative = inhibition) at 1uM” value is listed as -36.5%.

Regarding `S=C(NCc1ccc2c(c1)OCO2)NC1CCN(Cc2ccccc2)CC1`, the “hERG current change (%, negative = inhibition) at 1uM” value amounted to 15.9%. On to `C/C(=N/NC(=O)c1ccc(C)s1)c1ccncc1`, for which the “hERG current change (%, negative = inhibition) at 1uM” value is 21.4%. `O=C(CSc1n[nH]c(-c2ccccc2)n1)NC1CCCCC1`: the “hERG current change (%, negative = inhibition) at 1uM” value amounted to 9.57%. On to `CCc1cc2c(SCC(=O)Nc3cc(C)on3)ncnc2s1`, for which the “hERG current change (%, negative = inhibition) at 1uM” value is 2.09%. Take `COc1ccc(C2NC(=S)NC(O)(C(F)(F)F)C2C(=O)c2cccs2)cc1` (centres unmarked): the “hERG current change (%, negative = inhibition) at 1uM” value amounted to 9.74%. With `O=C(C1CCN(S(=O)(=O)N2CCC3(CC2)OCCO3)CC1)N1CCCCC1` the figure was 8.17%; with `NNC(=O)c1ccc(O)cc1O`, 5.07%.

Take `COc1cccc(-n2nnnc2SCC(=O)NC2CCCCC2)c1`: the “hERG current change (%, negative = inhibition) at 1uM” value is recorded as 10.2%. `COc1ccc(CC(=O)OCc2cc(=O)n3cc(Br)ccc3n2)cc1OC`: the “hERG current change (%, negative = inhibition) at 1uM” value was 0.469%.

On to `COc1ccc(S(=O)(=O)N2CCN(CCOc3ccccc3Cl)CC2)cc1OC`, for which the “hERG current change (%, negative = inhibition) at 1uM” value is 7.22%. On to `Cc1cc2nc(-c3ccc(SCC(=O)Nc4ccc5c(c4)OCCO5)nc3)[nH]c2cc1C`, for which the “hERG current change (%, negative = inhibition) at 1uM” value is 9.17%. With `COc1ccccc1NC(=O)c1sc(Cl)nc1C` the figure was 7.76%; with `Cc1nc(NC(=O)COC(=O)CCC(=O)c2cccs2)c(Cl)cc1Cl`, 21.6%; with `O=C(c1cnc2sccn2c1=O)N1CCc2ccccc2C1`, 10.2%.

As for `Cc1ccccc1Cn1nnc(C(=O)Nc2cccc(C)c2C)c1N`, the “hERG current change (%, negative = inhibition) at 1uM” value is reported as 2.8%. As for `CSc1ccccc1NC(=O)COC(=O)Cc1cccs1`, the “hERG current change (%, negative = inhibition) at 1uM” value was found to be 11.4%.

For the molecule `C=CCn1c(SCC(=O)Nc2c(C)nn(Cc3ccccc3)c2C)nnc1C(O)c1ccccc1` (centres unmarked), the “hERG current change (%, negative = inhibition) at 1uM” value amounted to 6.15%. On to `CCOC(=O)c1sc(-c2ccc(Br)cc2)cc1N`, for which the “hERG current change (%, negative = inhibition) at 1uM” value was -2.28%.

Regarding `Cc1cc(C(F)F)n2nc(C(=O)Nc3cc(C)on3)nc2n1`, the “hERG current change (%, negative = inhibition) at 1uM” value amounted to 4.95%.

On to `CSc1ccc(-c2nc(CN3CCCCC3c3cccnc3)c(C)o2)cc1` (centres unmarked), for which the “hERG current change (%, negative = inhibition) at 1uM” value is given as -3.12%. As for `CCC(=O)c1cn(CC(=O)Nc2ccc(C)cc2)c2ccccc12`, the “hERG current change (%, negative = inhibition) at 1uM” value is reported as 11.2%.

Take `COc1ccc(NC(=O)C2CCN(S(=O)(=O)c3ccc(N4CCCC4=O)cc3)CC2)cc1OC`: the “hERG current change (%, negative = inhibition) at 1uM” value is reported as 5.61%. Consider `O=c1c2cc(N3CCOCC3)ccc2[nH]c(=S)n1CCCN1CCCCCC1`, for which the “hERG current change (%, negative = inhibition) at 1uM” value was -8.17%.

For `COc1cc2c(cc1OC)CN(C(=S)NC(=O)c1ccccc1)CC2`, the “hERG current change (%, negative = inhibition) at 1uM” value was 9.98%.

As for `O=C(CNc1cc(S(=O)(=O)N2CCOCC2)ccc1NCC1CCCO1)Nc1ccccc1F` (centres unmarked), the “hERG current change (%, negative = inhibition) at 1uM” value is given as 0.0909%. In the case of `CC(=O)c1cccc(NC(=O)/C(=C\c2cccnc2)NC(=O)c2ccc(C)cc2)c1`, the “hERG current change (%, negative = inhibition) at 1uM” value is recorded as 4.57%. With `CCN(CC)S(=O)(=O)c1cccc(NC(=O)c2cncc(Br)c2)c1`, the “hERG current change (%, negative = inhibition) at 1uM” value is reported as -18.1%. For `COc1cc(C2C(C(=O)c3ccco3)=C(O)C(=O)N2c2cc(C)on2)ccc1OCc1ccccc1` (centres unmarked) the value was 18.3%; for `O=C(NCC(c1ccco1)N1CCCC1)c1cccc(S(=O)(=O)Nc2ccc(Br)cc2)c1` (centres unmarked), 10.2%; for `CCN(CC(=O)Nc1sc2c(c1C#N)CCC(C)C2)CC(=O)NC1CCS(=O)(=O)C1` (centres unmarked), 7.74%. With `CCOc1ccc(C2c3c(oc4ccccc4c3=O)C(=O)N2c2ccc(C)cn2)cc1OC` (centres unmarked) the figure was -0.807%; with `CCc1ccccc1N(CC(=O)NC(C)(C)CC)C(=O)CCC(=O)Nc1nccs1`, 3.04%; with `COc1ccc(/C=N\NC(=O)CNC(=O)C2COc3ccccc3O2)cc1[N+](=O)[O-]` (centres unmarked), -8.06%. `CCCC1COC(Cn2cncn2)(c2ccc(C)cc2)O1` (centres unmarked): the “hERG current change (%, negative = inhibition) at 1uM” value stood at 8.8%. Turning to `COc1ccc(N(C(C)C(=O)N/N=C(\C)C(C)(C)C)S(C)(=O)=O)cc1` (centres unmarked), the “hERG current change (%, negative = inhibition) at 1uM” value is on record as 17.8%. Regarding `COc1ccccc1NC(=O)C1CCCN(S(=O)(=O)c2c(C)noc2C)C1` (centres unmarked), the “hERG current change (%, negative = inhibition) at 1uM” value is reported as 8.54%.

Regarding `COc1c(C)cc(S(=O)(=O)NCCN2CCOCC2)c(C)c1C`, the “hERG current change (%, negative = inhibition) at 1uM” value came out at 6.69%. `CCOC(=O)c1ccc2[nH]c3c(c2c1)CCCC3NC=O` (centres unmarked): the “hERG current change (%, negative = inhibition) at 1uM” value was determined as 13.5%. For the molecule `CN(C/C=C/C#CC(C)(C)C)Cc1cccc2ccccc12.Cl`, the “hERG current change (%, negative = inhibition) at 1uM” value came out at 11.6%. As to `OCCCNC(=S)Nc1ccc(Oc2ccccc2)cc1`, the “hERG current change (%, negative = inhibition) at 1uM” value was 6.92%. With `CCCN(CCC)S(=O)(=O)c1ccc(C(=O)Nc2ccc(S(=O)(=O)Nc3nnc(CC)s3)cc2)cc1` the figure was 14.5%; with `Cn1c(=O)n(CCOc2ccc([N+](=O)[O-])cc2)c2ccccc21`, -22%; with `Cc1ccc(CCNC(=O)CN2C(=O)COc3ccc(S(=O)(=O)N4CCC(C)CC4)cc32)cc1`, 18%. Regarding `CC(C)=CC(=O)N1CCC(N2CCC(C(=O)N3CCOCC3)CC2)CC1`, the “hERG current change (%, negative = inhibition) at 1uM” value was 14%.

Turning to `Br.COc1ccc(Nc2nc(-c3sc(NC(C)=O)nc3C)cs2)cc1`, the “hERG current change (%, negative = inhibition) at 1uM” value stood at 1.94%. Consider `Br.CCOc1ccc(-c2csc(NNC3=NCCCCC3)n2)cc1`, for which the “hERG current change (%, negative = inhibition) at 1uM” value is 2.56%.

As to `CCCCC(=O)N(CCOC)c1nnc(-c2cccnc2)s1`, the “hERG current change (%, negative = inhibition) at 1uM” value is 11.3%.

Turning to `O=C(CN1C(=O)C2C3C=CC(C3)C2C1=O)N1CCc2ccccc2C1` (centres unmarked), the “hERG current change (%, negative = inhibition) at 1uM” value is reported as 8.92%. `CCC(C)N(C(=O)Cn1nnc(-c2ccc(F)cc2)n1)C1CCS(=O)(=O)C1` (centres unmarked): the “hERG current change (%, negative = inhibition) at 1uM” value was 12.3%. On to `Cc1ccsc1C1C(C#N)=C(N)Oc2n[nH]c(C)c21` (centres unmarked), for which the “hERG current change (%, negative = inhibition) at 1uM” value stood at 13.9%. For `Cc1nn(CCO)c(C)c1Oc1ccccc1O`, the “hERG current change (%, negative = inhibition) at 1uM” value was determined as 8.63%. In the case of `N#Cc1ccccc1NC(=O)CSc1nnc(-c2ccccc2)n1-c1ccccc1`, the “hERG current change (%, negative = inhibition) at 1uM” value was 7.56%.

Consider `O=C(CN1C(=O)CSc2ccc(S(=O)(=O)N3CCCCC3)cc21)NCc1ccccc1Cl`, for which the “hERG current change (%, negative = inhibition) at 1uM” value is on record as 12.8%.

As for `CCc1nnc(SCC(=O)Nc2nnc(C)s2)n1CC1CCCO1` (centres unmarked), the “hERG current change (%, negative = inhibition) at 1uM” value worked out at 7.27%. For `CN(C)c1ccc(C2=NOC(CN3C(=O)c4ccccc4S3(=O)=O)C2)cc1` (centres unmarked), the “hERG current change (%, negative = inhibition) at 1uM” value stood at 11.2%. As to `O=C(Cn1cc(C(=O)c2cccs2)c2ccccc21)NCc1cccs1`, the “hERG current change (%, negative = inhibition) at 1uM” value was found to be 5.24%. Turning to `COC(=O)c1c(NC(=O)Cc2ccccc2)sc2c1CCN(C(C)C)C2.Cl`, the “hERG current change (%, negative = inhibition) at 1uM” value is given as -8.3%.

As to `Nc1c(C(=O)CSc2nc3ccccc3o2)c(=O)[nH]c(=O)n1C1CC1`, the “hERG current change (%, negative = inhibition) at 1uM” value was 8.44%. As for `CN(C)C(=O)c1cn(CCC#N)nc1-c1ccc2ccccc2c1`, the “hERG current change (%, negative = inhibition) at 1uM” value is 18%.

For `CCc1ccc(NC(=O)C(C)OC(=O)c2ccc(N3CCCC3)c([N+](=O)[O-])c2)cc1` (centres unmarked), the “hERG current change (%, negative = inhibition) at 1uM” value is listed as -6.79%. Regarding `Cc1cc(C)n2nc(CC(=O)NNC(=O)c3ccc(N(C)C)cc3)nc2n1`, the “hERG current change (%, negative = inhibition) at 1uM” value came to 15.7%. Turning to `COc1ccccc1-c1cc(C(=O)NC(C)c2ccccc2)no1` (centres unmarked), the “hERG current change (%, negative = inhibition) at 1uM” value is 10.3%. Regarding `CC1CCCN(C(=S)SCC(=O)O)C1` (centres unmarked), the “hERG current change (%, negative = inhibition) at 1uM” value worked out at 4.89%. Take `CC(C)CCOc1ccccc1C(N)=O`: the “hERG current change (%, negative = inhibition) at 1uM” value came out at 13.6%. As for `COc1ccc(-n2nc3ccccc3n2)cc1`, the “hERG current change (%, negative = inhibition) at 1uM” value is reported as -5.14%. As for `Nc1c(C(=O)NCc2ccco2)nnn1CC(=O)Nc1ccc2c(c1)OCO2`, the “hERG current change (%, negative = inhibition) at 1uM” value is recorded as -15.3%.

As to `CCN1C(=O)[C@H]2[C@@H](c3ccc(C)cc3)N3C(=O)N(c4ccc(C)cc4)C(=O)[C@@]3(CC)[C@H]2C1=O`, the “hERG current change (%, negative = inhibition) at 1uM” value came to 8.64%. Turning to `CCC(CC)C(=O)N=C1SC2CS(=O)(=O)CC2N1CCc1ccc(OC)c(OC)c1` (centres unmarked), the “hERG current change (%, negative = inhibition) at 1uM” value was 2.8%. For `CCCn1c(SCC(=O)Nc2cc(S(=O)(=O)N3CCOCC3)ccc2OC)n[nH]c1=O` the value was 6.72%; for `O=C(NCc1ccncc1)Nc1cccc([N+](=O)[O-])c1`, 6.24%; for `O=C(Nc1ccccn1)Nc1ccccc1Cl`, 19.1%. For `Cc1cc(-c2nnc(SCC(=O)Nc3ccccc3)n2C)no1` the value was 11.9%; for `C=CC[n+]1c(-c2ccc(Cl)cc2Cl)csc1Nc1ccc(NC(C)=O)cc1.[Cl-]`, 8.45%. For the molecule `CC(C)(C)C(=O)N1N=C(c2ccc(NS(C)(=O)=O)cc2)CC1c1cccs1` (centres unmarked), the “hERG current change (%, negative = inhibition) at 1uM” value is -4.1%. For `FC(F)(F)c1cccc(N/N=C/c2ccccc2)c1` the value was 12%; for `CC(C)(C)NC(=O)COC(=O)c1ccc(Cl)cc1O`, 7.18%; for `O=C(N/N=C/c1cccs1)c1cccnc1`, 8.96%. `Cc1ccc2nc(N3CCN(C(=O)CCC(=O)O)CC3)nc(-c3ccccc3)c2c1`: the “hERG current change (%, negative = inhibition) at 1uM” value was 9.46%. With `CCn1ncc(NC(=S)Nc2ccc(OC)c(OC)c2)c1C(N)=O` the figure was 22.5%; with `CCC/C(=N/NC(=O)c1ccccc1Cl)c1ccccc1`, -3.22%.

Consider `CC(=O)c1cccc(NC(=O)CN2C(=O)NC(C)(c3ccc4c(c3)OCCCO4)C2=O)c1` (centres unmarked), for which the “hERG current change (%, negative = inhibition) at 1uM” value was 12.1%. On to `O=C(CN1CCN(c2ccccn2)CC1)Nc1ccc(F)cc1F`, for which the “hERG current change (%, negative = inhibition) at 1uM” value is listed as 2.38%.
